Data from the supplement of paper PMC3334620.
Whole data set: some 33,000 sequences, median “E-score (-0.5 to 0.5)” near -0.013, cut for the highest 2% near 0.3. Some of the results follow.

What follows are sequences tested against T1, Msn1 (UniProt P22148) (assay: PBM E-score (8-mer binding enrichment) (E-score (-0.5 to 0.5)); higher = stronger / more preferred TF binding; most listed sequences are background and not binding sites). Details: protein concentration: 200 nM; construct: GST-full length.
T1 sequence: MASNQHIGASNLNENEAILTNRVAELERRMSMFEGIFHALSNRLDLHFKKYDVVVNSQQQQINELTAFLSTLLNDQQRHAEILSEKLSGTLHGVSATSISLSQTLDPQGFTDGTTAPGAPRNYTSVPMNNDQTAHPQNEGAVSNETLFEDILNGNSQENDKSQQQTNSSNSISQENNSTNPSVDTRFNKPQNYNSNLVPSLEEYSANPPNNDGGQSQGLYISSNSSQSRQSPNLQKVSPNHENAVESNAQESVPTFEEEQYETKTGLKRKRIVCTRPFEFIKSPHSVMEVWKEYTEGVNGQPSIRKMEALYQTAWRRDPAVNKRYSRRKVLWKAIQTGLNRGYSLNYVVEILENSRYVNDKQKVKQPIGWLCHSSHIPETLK
Method in brief: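 Detection of bound protein used fluorescent anti-GST, with scans normalised by masliner. The proteins were GST-tagged yeast transcription factors applied at about 100-200 nM to universal all-10-mer Agilent arrays made double-stranded by primer extension. Each ungapped eight-base word, pooled with its reverse complement, was scored with an E-score from the Universal PBM Analysis Suite.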

| Sequence | PBM E-score |
| --- | --- |
| CCAGTAGC | -0.0202 |
| ATGAACTG | 0.0956 |
| AGTGGAAG | -0.369 |
| CCCGACTC | -0.0419 |
| CGATCCGA | 0.131 |
| CTGCGCAA | 0.137 |
| CAAAACAC | 0.0974 |
| TAACTACA | 0.132 |
| CACCCTCC | -0.293 |
| CTGTATGA | 0.0183 |
| ACGTAGAG | -0.164 |
| ACCATTCT | -0.0554 |
| GACAGGAA | 0.323 |
| CACCCTGA | -0.196 |
| ACTCCCAC | -0.319 |
| GATGGCCA | 0.00559 |
| GTGCGTTA | 0.084 |
| TGATACAA | 0.123 |
| GTCAACGA | 0.0877 |
| CGACCTGC | -0.131 |
| CGATGTGC | -0.0598 |
| CAGTGTGA | -0.0287 |
| ATCAAGAA | 0.0962 |
| AGTATCCA | 0.0161 |
| ACCCCTAT | -0.242 |

| Sequence | PBM E-score |
| --- | --- |
| AAGATGAA | -0.00389 |
| ATGCCTAG | -0.0824 |
| CAACCTCC | -0.288 |
| TGATTACA | 0.125 |
| AGCTACTG | -0.095 |
| TAACGCCA | -0.162 |
| AATAAAGT | 0.209 |
| AGAGAATG | 0.186 |
| GCTATGCC | -0.262 |
| CCCTGCTA | -0.2 |
| TCTATCAA | 0.0807 |
| CGTGTGGC | -0.0764 |
| AGTCATGG | 0.00853 |
| ACTACCAG | -0.271 |
| CTCACACC | -0.206 |
| ATGTCCTC | 0.481 |
| CATTGGTA | 0.122 |
| CGCCTATC | -0.0603 |
| GCTCTTGA | -0.0882 |
| ATCGCCAA | -0.0861 |
| GGGTCGCA | -0.107 |
| ACCATGCG | 0.0418 |
| CGCATCCG | -0.0959 |
| AGATTTGC | 0.0653 |
| ATCCATTA | 0.0133 |

| Sequence | PBM E-score |
| --- | --- |
| ATACATCG | 0.157 |
| AACGCATG | -0.0312 |
| ACGACTAG | 0.1 |
| CACGACGC | -0.166 |
| CATGGCGC | -0.0795 |
| ACGGGGCG | -0.0524 |
| CGCCCGCC | -0.158 |
| ATACAATC | -0.0273 |
| AAACTCCA | -0.129 |
| AACAAGTT | 0.0509 |
| AGTGCAGA | -0.0866 |
| AAAACCGC | -0.0566 |
| AGTACAGC | -0.0323 |
| AGGTCGTA | -0.0523 |
| ACTCCTCA | -0.338 |
| GAGTGCCC | -0.195 |
| GGTTCACA | -0.0395 |
| GGCATACA | -0.09 |
| CCCAGAGC | -0.294 |
| ACAGTCAC | -0.0889 |
| TAAGTTGA | 0.0771 |
| ACTTCCCT | -0.185 |
| CAGGCGTA | -0.0831 |
| TAAGCGCA | -0.0951 |
| ACCAATGG | -0.0826 |

| Sequence | PBM E-score |
| --- | --- |
| CACCCACC | -0.157 |
| CCCCAGAA | -0.235 |
| ATCCGCGA | 0.023 |
| AAGGTATA | 0.0465 |
| TATGGCCA | 0.00903 |
| AGTCGACA | 0.26 |
| CTTAACTC | -0.00904 |
| CGAACTTA | 0.0768 |
| ATCGTCTA | 0.0246 |
| CGACGTGC | -0.0162 |
| CCTCGAAA | -0.0128 |
| AAGGAGTA | -0.188 |
| AATTGTCG | 0.362 |
| ACCAGCAC | -0.108 |
| CCAAGCCG | -0.0418 |
| GGCGATGA | -0.136 |
| CGGCCAGC | -0.116 |
| AGAGCTCT | -0.265 |
| AGCCCGAG | -0.143 |
| ATTTATGG | 0.146 |
| CTGCCTAA | -0.0567 |
| GGAACAGA | 0.0477 |
| CTCAGGTC | -0.0234 |
| CATGACCC | -0.177 |
| GCCACCAC | -0.247 |

| Sequence | PBM E-score |
| --- | --- |
| CTCAACCC | -0.184 |
| CACTTGCC | -0.0233 |
| CGTTTTCC | 0.041 |
| CATGTAGC | -0.0387 |
| AAGCGTGC | -0.177 |
| TCTTTGCA | -0.0521 |
| ATGACCCG | -0.0682 |
| GCATACGA | -0.165 |
| CCGCAGAA | 0.182 |
| CTCTAACC | -0.244 |
| CAGCTCCG | -0.0775 |
| CTTCTAAC | -0.111 |
| AACTATAA | 0.185 |
| TAAGCCTA | 0.0536 |
| AATACTCG | 0.0121 |
| CTACAAGA | -0.128 |
| CGTCTGTC | 0.131 |
| GACATGAA | 0.308 |
| CGCTTTCA | 0.0815 |
| CGCGCACG | -0.13 |
| AGCCTATG | -0.111 |
| GTTCTCAA | 0.123 |
| CGACGCAC | -0.0629 |
| GATGGACC | 0.0221 |
| ACTTCGCG | 0.0341 |

| Sequence | PBM E-score |
| --- | --- |
| ACTACAAG | 0.00028 |
| CGTAGCAG | -0.139 |
| GGACTTCA | 0.0504 |
| ACTTGGCA | -0.076 |
| CGTTACGA | 0.0541 |
| GCATGCGA | -0.0856 |
| GCCGTGAC | 0.158 |
| GGTTCTGA | -0.0796 |
| GATTTCAA | 0.0797 |
| TGATAAAA | 0.0459 |
| ATGATTAG | 0.169 |
| ATAGGACG | 0.242 |
| GGCTACCA | 0.0403 |
| AGCCACCT | -0.261 |
| AATCAAGA | 0.115 |
| TAAAAGTA | 0.188 |
| ATGGCCCA | -0.0235 |
| CCCCTCCC | -0.221 |
| GGAGATAC | -0.225 |
| CGTGACAA | 0.309 |
| CTTCCCGA | 0.0228 |
| ATCTTGAG | 0.0323 |
| GGGACGAA | 0.187 |
| CAGGGCGA | -0.121 |
| AACGCATT | 0.0662 |

| Sequence | PBM E-score |
| --- | --- |
| ACTGACCG | -0.11 |
| CATCTTGA | 0.0629 |
| ACGTAACC | -0.0178 |
| GGACATTA | 0.489 |
| GGATGGTA | 0.00466 |
| CAATGATG | 0.0709 |
| CCCGGTGA | -0.239 |
| ATCGACTC | -0.189 |
| AGTCATCA | -0.129 |
| AGCCCAAC | -0.172 |
| CGTCGCAG | 0.0259 |
| ACCCGGAG | 0.177 |
| GAGGATTA | -0.0843 |
| GCCGACAC | -0.0139 |
| GAACTTGC | -0.0482 |
| CTTCGATA | -0.00326 |
| GGCAGTAA | 0.057 |
| GCAGCACA | -0.014 |
| ACTGTAAA | 0.182 |
| AAACCAAA | 0.0684 |
| ATGGGTAG | -0.0205 |
| CATAAGAC | 0.127 |
